Where “and” joins values, the source holds several entries; their conditions need not be identical. Equal entries are not always repeated. About 64,000 (15%) of roughly 420,000 compounds were called active. The shares of active, inactive and inconclusive entries below differ from those in the screen. The call rests on the fitted dose curve; in most records, active means well fitted inhibition curve with a large enough effect; inconclusive means small, poorly fitted or top-dose-only effect; inactive means flat fitted curve, though single readings scatter. Where the call is inconclusive, the potency comes from a doubtful curve fit.
Experiment: qHTS for Inhibitors of human tyrosyl-DNA phosphodiesterase 1 (TDP1): qHTS in cells in absence of CPT; further: nearly all actives have a fitted effect of over 55% in size
Details: DT40 Tdp1-/- hTDP1 cells, no CPT, ATP luminescence, 48 h; activity change, negative = growth inhibition: at 46.2 µM (top of the series) unless noted
Procedure, shortened: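 Camptothecin absent (DMSO only). Human TDP1-complemented DT40 knockout cells, 400 cells/well, 37 °C for minimum 48 hr; ATP measured via CellTiter-Glo, 30 min dark incubation, luminescence.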
On the % scale 0 is the no-effect control and ±100 the full control effect; potency means the concentration at half of the fitted maximal effect; tags describe the fitted curve by direction and shape.

Row | Structure (SMILES) | Potency | activity change, negative = growth inhibition
1 | COc1ccc2c(c1)[nH]c1c(Cl)ncnc12 | inconclusive: 10.3 µM [inhibitor, partial curve] | –
2 | Cc1onc(-c2ccccc2)c1-c1ccnn1C(=O)NC(C)C | inconclusive: 14.6 µM [inhibitor, partial curve] | –
3 | O=C(Nc1cccc(C(=O)OCc2cc(=O)n3c4c(sc3n2)CCCC4)c1)c1ccccc1 | active: 16.4 µM | –
4 | Cc1cc2nc(N3CCCN(Cc4cccn4-c4ncccn4)CC3)nc(C)c2cc1C | active: 16.4 µM | –
5 | Cc1ccc(-c2noc(CN(C)C(=O)c3ccc(Br)o3)n2)cc1 | inconclusive: 14.6 µM [inhibitor, single point] | –
6 | Cc1ccccc1OCC(=O)Nc1nnc(-c2ccncc2)s1 | – | inactive: -6.39%
7 | COc1ccccc1N(C(=O)CNC(=O)c1ccco1)C(C(=O)NC1CCCC1)c1ccco1 (configuration not stated) | – | inactive: -16.6%
8 | Cc1ccc2nc(-c3cccnc3)c(Nc3ccccc3C)n2c1 | inconclusive: 25.9 µM [inhibitor, single point] and inconclusive: 16.4 µM [inhibitor, single point] | –
9 | CCC/C(C#CCCN1C(=O)c2ccccc2C1=O)=C1/c2ccccc2C(=O)N1c1ccccc1 | inconclusive: 18.4 µM [inhibitor, single point] | –
10 | COc1ccc(/C=N/NC(=O)CC#N)cc1Oc1nc(Cl)ncc1F | inconclusive: 18.4 µM [inhibitor, partial curve, poor fit] | –
11 | O=C(CC1(O)C(=O)N(Cc2ccccc2)c2ccccc21)c1ccc2c(c1)OCO2 (configuration not stated) | inconclusive: 29.1 µM [inhibitor, single point] | –
12 | Cc1nc(-c2ccccn2)sc1C(=O)Nc1ccc(F)cc1F | inconclusive: 18.4 µM [inhibitor, partial curve, poor fit] | –
13 | Cc1cccc(N2CCN(Cc3c(C)n(C)n(-c4ccccc4)c3=O)CC2)c1C | inconclusive: 16.4 µM [inhibitor, partial curve] | –
14 | COc1cccc(Sc2nc(N(C)C)ncc2S(=O)(=O)c2ccc(Cl)cc2)c1 | inconclusive: 25.1 µM [inhibitor, single point] | –
15 | COc1ccccc1C1CCCN1Cc1nc(-c2ccc(C)s2)oc1C (configuration not stated) | inconclusive: 23.1 µM [inhibitor, single point] | –
16 | Clc1ccc(C2=Nn3c(nnc3-c3cc(-c4ccccc4)n[nH]3)SC2)cc1 | active: 18.4 µM | –
17 | COc1ccccc1S(=O)(=O)N(C)C[C@H]1OCc2cnnn2CCCC(=O)N([C@@H](C)CO)C[C@@H]1C | – | inactive: -4.81%
18 | COc1cc2c(cc1NC(=O)c1cncc(Br)c1)oc1ccccc12 | – | inactive: -23.7%
19 | Cc1cc(C)c2nc(N(Cc3cccnc3)C(=O)CCOc3ccccc3)sc2c1 | inconclusive: 29.1 µM [inhibitor, single point] | –
20 | O=C(NC(=S)N(CCO)Cc1ccccc1)c1ccc(S(=O)(=O)N2CCCC2)cc1 | inconclusive: 23.1 µM [inhibitor, single point] | –
21 | CCOc1ccc(S(=O)(=O)Nc2nc3ccccc3nc2Nc2ccc(OC)cc2)cc1 | – | inactive: -29.4%
22 | CC(=O)N1N=C2/C(=C/c3ccccc3)CCCC2C1c1ccccc1 (configuration not stated) | inconclusive: 29.1 µM [inhibitor, single point] | –
23 | CC(C)[C@H](CN1CCC[C@H]1CN1C(N)=NC[C@@H]1Cc1ccccc1)N1C[C@@H](Cc2ccccc2)N(CCc2ccc(Cl)c(Cl)c2)C1=N | inconclusive: 29.1 µM [inhibitor, single point] | –

Row | Structure (SMILES) | Potency | activity change, negative = growth inhibition
24 | O=C(NCCc1ccccc1)c1cnc(Cl)c(Cl)c1 | inconclusive: 16.4 µM [inhibitor, single point] | –
25 | CC1Cc2nc(SCC(=O)NCc3ccco3)n(Cc3ccccc3)c(=O)c2S1 (configuration not stated) | inconclusive: 29.1 µM [inhibitor, single point] | –
26 | COC(CNc1nc(SC)nc2sc3c(c12)CCN(C)C3)OC | inconclusive: 29.1 µM [inhibitor, single point] | –
27 | COCCCNC(=O)CC(NS(=O)(=O)c1ccc(C)cc1)c1ccc(OC)cc1 (configuration not stated) | – | inactive: -1.46%
28 | CC1Sc2ccc(S(=O)(=O)N3CCC(C(=O)Nc4ccc(Cl)cc4)CC3)cc2NC1=O (configuration not stated) | active: 9.2 µM | –
29 | CN(C)C(=O)c1cn(-c2ccccc2)nc1-c1cccs1 | – | inactive: 2.07%
30 | O=C(N[C@@H](Cc1ccc(O)cc1)C(=O)O)c1ccncc1 | – | inactive: 1.66%
31 | O=C(N/N=C/c1ccc2cccnc2c1)c1ccco1 | inconclusive: 20.6 µM [inhibitor, single point] | –
32 | CC(=O)Cc1nsc(NC(=O)c2ccc(-c3cccc(Cl)c3)o2)n1 | active: 16.4 µM | –
33 | CCN(CC(=O)Nc1c(F)cccc1F)C(=O)c1cccc(S(=O)(=O)N2CCCCCC2)c1 | inconclusive: 29.1 µM [inhibitor, single point] | –
34 | O=S(=O)(c1ccccc1Br)N(CC(O)COCc1ccccc1)C1CC1 (configuration not stated) | – | inactive: -21%
35 | CCc1ccc(N/C(SC)=C(/C#N)C(N)=O)cc1 | inconclusive: 29.1 µM [inhibitor, partial curve, poor fit] | –
36 | CCOc1ccc(/C=C/C(=O)NCc2ccccc2)cc1 | inconclusive: 23.1 µM [inhibitor, partial curve] | –
37 | Cc1ccc(-n2c([S-])c(C(=O)Nc3ccc(OC(F)F)cc3)[n+]3ccc(C(=O)NCCO)cc23)cc1C | – | inactive: 6.38%
38 | Cc1ccc(C(=O)NCC(=O)OCC(=O)c2ccc(Br)s2)cc1 | – | inactive: -12.2%
39 | CCOC(=O)C1CCCN(CC(O)COc2cccc(C)c2)C1 (configuration not stated) | – | inactive: 7.32%
40 | Cc1ccc2c(c1)N(CC(=O)N1CCCc3ccccc31)C(=O)C(C)O2 (configuration not stated) | inconclusive: 20.6 µM [inhibitor, single point] | –
41 | CC(C)Oc1cc(C(=O)N2CCC(N3CCCCC3)CC2)ccc1Nc1nnc(Cl)c(Nc2ccccc2S(C)(=O)=O)n1 | inconclusive: 29.1 µM [inhibitor, single point] | –
42 | CCOC(=O)C1=C(C)c2ccccc2OC1(C(=O)OCC)C(C)C (configuration not stated) | inconclusive: 13 µM [inhibitor, single point] | –
43 | O=C(CN1C(=O)c2ccccc2S1(=O)=O)Nc1ccccn1 | – | inactive: 4.3%
44 | O=C(NCc1cccs1)c1cc(-c2ccccc2)nn1CC1CC(c2cccnc2)=NO1 (configuration not stated) | inconclusive: 16.4 µM [inhibitor, single point] | –
45 | Clc1ccc(-c2nnc(SCc3nc(-c4ccccc4)no3)o2)cc1 | inconclusive: 18.4 µM [inhibitor, single point] | –
46 | O=C(CCCn1c(SCc2cc(=O)n3cc(Cl)ccc3n2)nc2ccccc2c1=O)NCC1CCCO1 (configuration not stated) | inconclusive: 25.9 µM [inhibitor, single point] | –

Row | Structure (SMILES) | Potency | activity change, negative = growth inhibition
47 | CCCCn1c(CNC(=O)C(C)(C)C)nc2ccccc21 | inconclusive: 16.4 µM [inhibitor, single point] | –
48 | CC(CCc1ccccc1)NC(=O)c1cccc([N+](=O)[O-])c1 (configuration not stated) | inconclusive: 16.4 µM [inhibitor, single point] | –
49 | O=[N+]([O-])c1ccc(Cl)c(S(=O)(=O)Nc2cccc(-c3ccc(N4CCCC4)nn3)c2)c1 | – | inactive: -18.9%
50 | Cn1nc(C(=O)Nc2ccc3c(c2)OCCO3)cc1C(=O)O | inconclusive: 11.6 µM [inhibitor, partial curve] | –
51 | COC(=O)C1=CN(Cc2ccccc2)C=C(C(=O)OC)C1c1ccc(O)c(OC)c1 | inconclusive: 29.1 µM [inhibitor, single point] | –
52 | COc1ccnc(N2CCN(c3ccc(Cl)cc3)CC2)c1C#N | – | inconclusive: -30.7% [inhibitor]
53 | CSc1ccccc1NC(=O)COc1ccc(S(=O)(=O)N2CCCC2)cc1 | inconclusive: 29.1 µM [inhibitor, single point] | –
54 | CC(=O)Nc1cccc(/C(C)=N/NC(=O)c2c(-c3ccccc3Cl)noc2C)c1 | active: 13 µM | –
55 | COc1ccc(CN(C(=O)c2oc3ccccc3c2C)C2CCS(=O)(=O)C2)cc1OC (configuration not stated) | inconclusive: 6.51 µM [inhibitor, partial curve] | –
56 | CCOc1ccc(C(=O)O/N=C(\N)c2ccccn2)cc1 | inconclusive: 5.8 µM [inhibitor, partial curve, poor fit] | –
57 | COc1ccc2ncc3c(-c4ccc(C)c(C)c4)nn(CC(=O)NC4CCCC4)c3c2c1 | active: 6.51 µM | –
58 | COc1cc(C(=O)NNC(=O)c2cc(S(=O)(=O)N(C)C)ccc2N2CCCC2)cc(OC)c1OC | – | inactive: 18.7%
59 | COc1cc(C(=S)N2CCOCC2)ccc1OC(=O)c1cc([N+](=O)[O-])cc([N+](=O)[O-])c1 | inconclusive: 1.84 µM [inhibitor, partial curve, poor fit] | –
60 | COc1ccc(/C(N)=N/OC(=O)c2c(-c3ccccc3Cl)noc2C)cc1OC | inconclusive: 20.6 µM [inhibitor, single point] | –
61 | CSc1nnc2c3ccccc3n(Cc3ccccc3)c2n1 | inconclusive: 20.6 µM [inhibitor, partial curve, poor fit] | –
62 | CC(NC(=O)C(=O)N/N=C\c1ccc([N+](=O)[O-])cc1)c1ccccc1 (configuration not stated) | – | inactive: 1.73%
63 | CCOC(=O)c1ccc(N2C(=O)C3C(C2=O)C(C(=O)c2ccc(Cl)cc2)N2CCCC32)cc1 (configuration not stated) | active: 20.6 µM | –
64 | Cc1cccc(NC(=O)CNC(=O)c2cc(S(=O)(=O)N(C)C)ccc2N2CCCC2)c1C | inconclusive: 23.1 µM [inhibitor, partial curve] | –
65 | COc1ccc(CCNC(=O)c2cc3c(=O)n(C)c4ccccc4c3n2C)cc1OC | active: 16.4 µM | –
66 | CSc1ccc(CN2CCC(Cc3ccccc3)CC2)cc1 | inconclusive: 29.1 µM [inhibitor, single point] | –
67 | Cc1cccc(-n2ncc3c(N4CCN(c5ccccc5)CC4)ncnc32)c1 | inconclusive: 18.4 µM [inhibitor, single point] | –

— PubChem BioAssay AID686978 (National Center for Advancing Translational Sciences (NCATS), 2013)
